Reference: a collection of fitness landscapes (doi:10.1016/j.celrep.2020.107928)
Whole data set: some 81,000 sequences, median “one-hybrid fitness for binding NBS DNA” near -0.1, cut for the highest 2% near 0.36. The list shows a part of the results.

B1: Caulobacter ParB omega fusion; a variant is named by its letters at X, in order, B8GW30 (parent)
chain: MESVVVGEPGMSEGRRGLGRGLSALLGEVDAAPAQAPGEQLGGSREAPIEILQRNPDQPRRTFREEDLEDLSNSIREKGVLQPILVRPSPDTAGEYQIVAGERAWRAAQRAGLKTVPIMVRELDDLAVLEIGIIENVQRADLNVLEEALSYKVLMEKFERTQENIAQTIGKSXSHVANXMRLLXLPDEVQSYLVSGELTAXHARAIAAAADPVALAKQIIEGGLSVRETEALARKAPNLSAGKSKGGRPPRVKDTDTQALESDLSSVLGLDVSIDHRGSTGTLTITYATLEQLDDLCNRLTRGI

Variants of: B1
Assay: one-hybrid fitness for binding NBS DNA (the Noc-binding site; scaled: cognate 1, non-cognate 0); higher = stronger binding
Settings: with NBS DNA site
How it was run: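 Caulobacter ParB libraries with four specificity codons randomised were screened by bacterial one-hybrid selection in the E. coli USO strain, using a HIS3 reporter whose site lies 19 bp from the promoter. Selection ran for 48 hours at 37°C on M9 lacking histidine, with 0.1 mM IPTG and 5 mM 3-AT. Plasmids were Illumina-sequenced before and after selection, three replicate libraries were pooled, and variants with under 10 reads were dropped. Fitness is the log change in each variant's read ratio to wild type, rescaled against the cognate and non-cognate sites.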

Row | Variant | one-hybrid fitness for binding NBS DNA
1 | NKKT | ≤ 0.2
2 | QHWV | ≤ 0.2
3 | IIAR | ≤ 0.2
4 | AHSR | ≤ 0.2
5 | DKGR | ≤ 0.2
6 | YIPS | ≤ 0.2
7 | STMN | ≤ 0.2
8 | TPSW | ≤ 0.2
9 | RSGE | ≤ 0.2
10 | LNAS | ≤ 0.2
11 | PTLQ | ≤ 0.2
12 | AMSG | ≤ 0.2
13 | HKSN | ≤ 0.2
14 | TLLD | ≤ 0.2
15 | RVCH | ≤ 0.2
16 | RCRC | 0.391
17 | SVRD | ≤ 0.2
18 | VTAQ | ≤ 0.2
19 | SQPH | ≤ 0.2
20 | NMWG | ≤ 0.2
21 | LRET | ≤ 0.2
22 | HKLV | ≤ 0.2
23 | ADKM | ≤ 0.2
24 | RRCC | 0.325

Row | Variant | one-hybrid fitness for binding NBS DNA
25 | RGRH | ≤ 0.2
26 | VHQR | ≤ 0.2
27 | ILFS | ≤ 0.2
28 | HVER | ≤ 0.2
29 | KATS | ≤ 0.2
30 | TLDY | ≤ 0.2
31 | QGMN | ≤ 0.2
32 | RYLL | ≤ 0.2
33 | HPVL | ≤ 0.2
34 | NTRM | ≤ 0.2
35 | HSNP | ≤ 0.2
36 | HCNF | ≤ 0.2
37 | HRFC | ≤ 0.2
38 | GDHA | ≤ 0.2
39 | WSDG | ≤ 0.2
40 | QTLH | 0.223
41 | VPGS | ≤ 0.2
42 | PVDN | ≤ 0.2
43 | RLDN | ≤ 0.2
44 | DVYE | ≤ 0.2
45 | ATHP | ≤ 0.2
46 | YAMR | ≤ 0.2
47 | RKNN | ≤ 0.2
48 | RVCK | ≤ 0.2

Row | Variant | one-hybrid fitness for binding NBS DNA
49 | VLFR | ≤ 0.2
50 | VFKG | ≤ 0.2
51 | SWRG | ≤ 0.2
52 | AERT | ≤ 0.2
53 | PVPW | ≤ 0.2
54 | PPKM | ≤ 0.2
55 | IIMD | ≤ 0.2
56 | CLDL | ≤ 0.2
57 | ARIC | ≤ 0.2
58 | WGSD | ≤ 0.2
59 | TKHR | ≤ 0.2
60 | GRPN | ≤ 0.2
61 | FRKR | 0.278
62 | YPMK | ≤ 0.2
63 | VNEG | ≤ 0.2
64 | QYPI | ≤ 0.2
65 | PLGW | ≤ 0.2
66 | HPHL | ≤ 0.2
67 | PAGF | ≤ 0.2
68 | WPKW | ≤ 0.2
69 | KRYA | 0.313
70 | YQYG | ≤ 0.2
71 | HKTG | ≤ 0.2
72 | QCEK | ≤ 0.2

Row | Variant | one-hybrid fitness for binding NBS DNA
73 | ITFY | ≤ 0.2
74 | CLWR | ≤ 0.2
75 | DFLN | ≤ 0.2
76 | MVSV | ≤ 0.2
77 | ESNE | ≤ 0.2
78 | YEDC | ≤ 0.2
79 | PYLP | ≤ 0.2
80 | DRAL | ≤ 0.2
81 | TFFP | ≤ 0.2
82 | YFLS | ≤ 0.2
83 | LSPM | ≤ 0.2
84 | VCND | ≤ 0.2
85 | TERG | ≤ 0.2
86 | ASVR | ≤ 0.2
87 | RLDH | ≤ 0.2
88 | SSGL | ≤ 0.2
89 | RLDF | ≤ 0.2
90 | FWGY | ≤ 0.2
91 | YMCE | 0.227
92 | TFMS | ≤ 0.2
93 | SVKA | ≤ 0.2
94 | IRGI | ≤ 0.2
95 | SRWT | ≤ 0.2
96 | ATPI | ≤ 0.2

Row | Variant | one-hybrid fitness for binding NBS DNA
97 | ITKN | ≤ 0.2
98 | PAVQ | ≤ 0.2
99 | FAAF | ≤ 0.2
100 | HIMG | ≤ 0.2
101 | NAEF | ≤ 0.2
102 | QNKD | ≤ 0.2
103 | PEGP | ≤ 0.2
104 | PLYM | ≤ 0.2
105 | WRVF | ≤ 0.2
106 | SRHW | ≤ 0.2
107 | VAHA | ≤ 0.2
108 | CPGG | ≤ 0.2
109 | AGQG | ≤ 0.2
110 | LVVA | ≤ 0.2
111 | GYAR | ≤ 0.2
112 | GQPT | ≤ 0.2
113 | VETC | ≤ 0.2
114 | DAWT | ≤ 0.2
115 | GGVH | ≤ 0.2
116 | FLQR | ≤ 0.2
117 | TVIC | ≤ 0.2
118 | NYYR | ≤ 0.2
119 | TASC | ≤ 0.2
120 | PIAS | ≤ 0.2

Row | Variant | one-hybrid fitness for binding NBS DNA
121 | VAPT | ≤ 0.2
122 | PDTY | ≤ 0.2
123 | PRLV | ≤ 0.2
124 | CAPT | ≤ 0.2
125 | QCHC | 0.238
126 | PFSV | ≤ 0.2
127 | SHWH | ≤ 0.2
128 | RGYV | ≤ 0.2
129 | QSAL | ≤ 0.2
130 | PARH | ≤ 0.2
131 | QDLM | ≤ 0.2
132 | PNQT | ≤ 0.2
133 | NLTM | ≤ 0.2
134 | RRVL | ≤ 0.2
135 | WGAS | ≤ 0.2
136 | GVHK | ≤ 0.2
137 | KWLI | ≤ 0.2
138 | SNRD | ≤ 0.2
139 | GQWI | ≤ 0.2
140 | SERT | ≤ 0.2
141 | PCLI | ≤ 0.2
142 | AVPC | ≤ 0.2
143 | TKTM | ≤ 0.2
144 | FNGR | ≤ 0.2

Row | Variant | one-hybrid fitness for binding NBS DNA
145 | WNTC | ≤ 0.2
146 | AALR | ≤ 0.2
147 | NHWY | ≤ 0.2
148 | FDRD | ≤ 0.2
149 | GCGT | ≤ 0.2
150 | ALMC | ≤ 0.2
151 | LADT | ≤ 0.2
152 | RHIA | ≤ 0.2
153 | SLLC | ≤ 0.2
154 | CWLV | ≤ 0.2
155 | PRHY | ≤ 0.2
156 | PAMY | ≤ 0.2
157 | LRMS | ≤ 0.2
158 | FPMR | ≤ 0.2
159 | DGMC | ≤ 0.2
160 | RNWL | ≤ 0.2
161 | LVRD | ≤ 0.2
162 | ECNM | ≤ 0.2
163 | QDSM | ≤ 0.2
164 | AQQG | ≤ 0.2
165 | TIVS | ≤ 0.2
166 | EVVS | ≤ 0.2
167 | EDYR | ≤ 0.2
168 | SEQS | ≤ 0.2

Row | Variant | one-hybrid fitness for binding NBS DNA
169 | NTDV | ≤ 0.2
170 | YKRS | ≤ 0.2
171 | SLAG | ≤ 0.2
172 | ITFW | ≤ 0.2
173 | EYAS | ≤ 0.2
174 | NHFS | ≤ 0.2
175 | IGEL | ≤ 0.2
176 | QWKS | ≤ 0.2
177 | MAPV | ≤ 0.2
178 | RRCL | ≤ 0.2
179 | TPQC | ≤ 0.2
180 | LERY | ≤ 0.2
181 | HLTS | ≤ 0.2
182 | ATRE | ≤ 0.2
183 | QVHC | ≤ 0.2
184 | IHPL | ≤ 0.2
185 | TPHF | ≤ 0.2
186 | KQTL | ≤ 0.2
187 | TPNS | ≤ 0.2
188 | RNGV | ≤ 0.2
189 | GETT | ≤ 0.2
190 | QTNA | 0.505
191 | VESH | ≤ 0.2
192 | DTHS | ≤ 0.2

Row | Variant | one-hybrid fitness for binding NBS DNA
193 | YMMN | ≤ 0.2
194 | FRCG | ≤ 0.2
195 | CKMR | ≤ 0.2
196 | ESMS | ≤ 0.2
197 | TEDS | ≤ 0.2
198 | KLRT | 0.211
199 | QDTP | ≤ 0.2
200 | DRYA | ≤ 0.2
201 | HSCR | ≤ 0.2
202 | YTFG | ≤ 0.2
203 | RHPN | ≤ 0.2
204 | NYHG | ≤ 0.2
205 | LLYC | ≤ 0.2
206 | FEKR | ≤ 0.2
207 | QYNT | 0.488
208 | WRWP | ≤ 0.2
209 | QANW | ≤ 0.2
210 | DTAL | ≤ 0.2
211 | GTAW | ≤ 0.2
212 | FMWG | ≤ 0.2
213 | HYQF | ≤ 0.2
214 | FQIR | ≤ 0.2
215 | ERLA | ≤ 0.2
216 | HDKS | ≤ 0.2

Row | Variant | one-hybrid fitness for binding NBS DNA
217 | LTSM | ≤ 0.2
218 | HFKG | ≤ 0.2
219 | CHTV | ≤ 0.2
220 | HLQC | ≤ 0.2
221 | FTAG | ≤ 0.2
222 | SYSH | ≤ 0.2
223 | MMWG | ≤ 0.2
224 | TSSL | ≤ 0.2
225 | PFKT | ≤ 0.2
226 | SARF | ≤ 0.2
227 | ITQW | ≤ 0.2
228 | SLNA | ≤ 0.2
229 | PQIG | ≤ 0.2
230 | TRCP | ≤ 0.2
231 | TYSM | ≤ 0.2
232 | KWVI | ≤ 0.2
233 | REFS | ≤ 0.2
234 | VNTY | ≤ 0.2
235 | TVRE | ≤ 0.2
236 | RHYE | ≤ 0.2
237 | CSNT | ≤ 0.2
238 | AKTV | ≤ 0.2
239 | MVSM | ≤ 0.2
240 | EAKY | ≤ 0.2

Row | Variant | one-hybrid fitness for binding NBS DNA
241 | AEIN | ≤ 0.2
242 | IGNT | ≤ 0.2
243 | AMRI | ≤ 0.2
244 | NEAG | ≤ 0.2
245 | AVYA | ≤ 0.2
246 | HCFS | ≤ 0.2
247 | RLVY | ≤ 0.2
248 | EQLA | ≤ 0.2
249 | HNTT | ≤ 0.2
250 | FDRT | ≤ 0.2
251 | LKPP | ≤ 0.2
252 | NRAG | ≤ 0.2
253 | RESD | ≤ 0.2
254 | YPHG | ≤ 0.2
255 | AMPR | ≤ 0.2
256 | HRQD | ≤ 0.2
257 | TSKR | 0.271
258 | FLAG | ≤ 0.2
259 | NPMK | ≤ 0.2
260 | PRPE | ≤ 0.2
261 | QDNA | ≤ 0.2
262 | RACR | 0.379
263 | WDCC | ≤ 0.2
264 | HFWS | ≤ 0.2

Row | Variant | one-hybrid fitness for binding NBS DNA
265 | GHDS | ≤ 0.2
266 | MRHV | ≤ 0.2
267 | GSTC | ≤ 0.2
268 | AVVN | ≤ 0.2
269 | REFT | ≤ 0.2
270 | TMMI | ≤ 0.2
271 | KMRY | ≤ 0.2
272 | ATLM | ≤ 0.2
273 | VDLM | ≤ 0.2
274 | ITYS | ≤ 0.2
275 | LHQS | ≤ 0.2
276 | QAGK | ≤ 0.2
277 | HPQS | ≤ 0.2
278 | HDLS | ≤ 0.2
279 | CNNC | ≤ 0.2
280 | HESR | ≤ 0.2
281 | QPAL | ≤ 0.2
282 | KAER | ≤ 0.2
283 | ALAS | ≤ 0.2
284 | TKLT | ≤ 0.2
285 | SCQC | ≤ 0.2
286 | GQQG | ≤ 0.2
287 | RKVC | ≤ 0.2
288 | HSSP | ≤ 0.2

Row | Variant | one-hybrid fitness for binding NBS DNA
289 | AKQD | ≤ 0.2
290 | QYKP | 0.232
291 | LRLT | ≤ 0.2
292 | IAQM | ≤ 0.2
293 | GRTF | ≤ 0.2
294 | RVNS | 0.521
295 | QCLA | 0.304
296 | ISSG | ≤ 0.2
297 | ARMC | ≤ 0.2
298 | RLTM | ≤ 0.2
299 | NNKY | ≤ 0.2
300 | RHFG | ≤ 0.2
301 | WGYF | ≤ 0.2
302 | GAQF | ≤ 0.2
303 | EMYG | ≤ 0.2
304 | SMNG | ≤ 0.2
305 | RQCR | 0.394
306 | WMKR | 0.226
